# Results taken from PubChem BioAssay AID493005 (National Center for Advancing Translational Sciences (NCATS), 2010).
# Among all 340,000 compounds or so, fewer than 10 were called active. Inconclusive results, whose numbers are uncertain, are shown with a selection of clear calls. Calls follow the shape of the dose curve; as a rule, active = well fitted inhibition curve with a large enough effect in the main read-out, with a control signal flat (not every such curve was filed as active); inconclusive = small, poorly fitted or top-dose-only effect, or effect the other way, or a change in a side signal; inactive = no such curve, though single readings can be large or run the other way. Where the call is inconclusive, the potency comes from a doubtful curve fit. A note “side channel” means that the fit belongs to a control or component signal, not to the main read-out.
# Target: Tumor susceptibility gene 101 protein (Homo sapiens) (UniProt Q99816)
# Chain of UniProt Q99816 (Q99816 whole entry, looked up): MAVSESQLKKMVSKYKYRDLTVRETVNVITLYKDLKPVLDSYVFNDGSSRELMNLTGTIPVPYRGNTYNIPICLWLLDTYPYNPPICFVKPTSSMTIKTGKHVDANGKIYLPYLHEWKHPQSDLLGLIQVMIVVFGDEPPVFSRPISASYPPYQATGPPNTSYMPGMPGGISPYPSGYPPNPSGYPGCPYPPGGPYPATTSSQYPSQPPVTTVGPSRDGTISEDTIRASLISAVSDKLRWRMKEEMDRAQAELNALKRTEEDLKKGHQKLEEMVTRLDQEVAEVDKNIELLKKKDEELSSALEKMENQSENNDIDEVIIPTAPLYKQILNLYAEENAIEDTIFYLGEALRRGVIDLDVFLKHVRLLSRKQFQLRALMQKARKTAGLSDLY
# Experiment: qHTS Assay for Iinhibitors of HIV-1 Budding by Blocking the Interaction of PTAP/TSG101; as to activity change, negative = inhibition: % of control where 0% means no effect
# Details: Fluorescence polarization, FITC-PTAP peptide / Tsg101 binding; activity change, negative = inhibition: at 115 µM (top of the series)
# Outline: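 Fluorescence polarization binding of Tsg101 binding domain (10 uM final) to FITC-labeled PTAP peptide (50 nM final) in HEPES pH 7.5 buffer with NaCl, Tween 20, EDTA, TCEP. Compounds added before peptide; binding 20 min at RT.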
# Potency is read from the fitted curve at half-maximal effect; tags tell the direction and shape of the fitted curve or compound fluorescence and quenching.
Structure (SMILES),"activity change, negative = inhibition",Potency
CC(=O)Nc1sc(N/N=C/c2ccc(N(C)C)cc2)nc1-c1ccc(C)cc1,inactive: -5.52%,–
CC(C)(C)c1ccc(C(=O)NCCC(=O)N2CCN(c3ncccn3)CC2)cc1,inactive: 0.291%,–
O=c1oc2ccccc2nc1/C=C(O)/C=C\c1ccccc1,–,"inconclusive: 50.1 µM [fluorescent, side channel, partial curve, poor fit]"
O=C(N/N=C/c1cc(Br)cc(Br)c1O)c1cccc(S(=O)(=O)N2CCOCC2)c1,–,"inconclusive: 79.4 µM [fluorescent, side channel, partial curve, poor fit]"
C=C(C)c1cccc(C(C)(C)NC(=O)Nc2ccc(C)cn2)c1,inactive: -0.85%,–
COc1ccc(NC(=O)c2cccc(-c3ccc(O)cc3)c2)cn1,–,"inconclusive: 50.1 µM [fluorescent, partial curve, poor fit]"
CCC(=O)Nc1ccc(F)c(Cl)c1,inactive: -6.2%,–
COc1cccc(/C(O)=C/c2nc3ccc(C(=O)NCCc4cccc(C)c4)cc3[nH]c2=O)c1,–,"inconclusive: 50.1 µM [fluorescent, side channel, partial curve, poor fit]"
Oc1sc(C=Nc2ccc(F)cc2)c2ccccc12,–,"inconclusive: 44.7 µM [fluorescent, side channel, partial curve, poor fit]"
Cc1cc[n+](-c2[nH]c(=O)sc2/C=N/N=C(\[O-])c2ccccc2)cc1C,–,"inconclusive: 56.2 µM [fluorescent, side channel, partial curve, poor fit]"
CCOC(=O)C1CCN(c2nc3ccccc3nc2C(C#N)C(=O)OC(C)C)CC1 (stereo unspecified),–,"inconclusive: 56.2 µM [fluorescent, side channel, partial curve, poor fit]"
COc1ccc(-n2c(C)cc(C(=O)COC(=O)c3ccc(O)cc3O)c2C)cc1,inactive: -4.61%,–
CN1CCC/C1=C/C=C1\SC(=S)NC1=O,–,"inconclusive: 50.1 µM [fluorescent, side channel, partial curve, poor fit]"
CCN(CC)c1ccc(NC(=O)c2ccc3c(c2)c(C)c(C)n3C)cc1,inactive: 1.08%,–
Cc1ccc(C(=O)N/N=C\c2ccc(OC(=O)c3cccs3)cc2)cn1,–,"inconclusive: 79.4 µM [fluorescent, side channel, single point]"
S=c1[nH]nc(Cc2ccccc2)n1Cc1ccco1,inactive: -10.8%,–
CN1/C(=C\C=C2/SC(=S)N(CC(=O)O)C2=O)C(C)(C)c2ccccc21,–,"inconclusive: 50.1 µM [fluorescent, side channel, partial curve, poor fit]"
Oc1ccc(N=Cc2c(O)ccc3ccccc23)cc1,–,"inconclusive: 39.8 µM [fluorescent, side channel, full curve, poor fit]"

Structure (SMILES),"activity change, negative = inhibition",Potency
O=C1c2ccccc2S(=O)(=O)c2cc(N3CCN(C(=O)c4ccccc4)CC3)ccc21,–,"inconclusive: 79.4 µM [fluorescent, side channel, partial curve]"
N#CC1=C(N)SC(N)=C(C#N)C1CCc1ccccc1,–,"inconclusive: 39.8 µM [fluorescent, side channel, partial curve, poor fit]"
Cc1c(NC(C)C)c(=O)n(-c2ccccc2)n1C,–,"inconclusive: 39.8 µM [fluorescent, side channel, partial curve, poor fit]"
COc1ccc(N2C(=O)[C@@H]3[C@H](C2=O)[C@H]2c4ccccc4C=CN2[C@@H]3C(=O)Nc2ccccc2)cc1,–,"inconclusive: 50.1 µM [fluorescent, side channel, partial curve, poor fit]"
COc1ccc(CN(C(=O)CSc2nnc(-c3c[nH]c4ccccc34)o2)c2ccc(F)cc2)cc1OC,inactive: -6.16%,–
Cc1ccc(Cl)c2c(N=Nc3ccccc3)c(O)[nH]c12,–,"inconclusive: 56.2 µM [fluorescent, side channel, partial curve, poor fit]"
CCCn1nnc(NC(=O)c2ccccc2Cl)n1,inactive: -8.01%,–
CC(C)n1cc(/C=C/c2cc[n+](C)cc2)c2ccccc21,–,"inconclusive: 56.2 µM [fluorescent, side channel, partial curve, poor fit]"
O=C(O)CCNc1cc(N2CCN(C(=O)c3ccco3)CC2)c2noc3c2c1C(=O)c1ccccc1-3,–,"inconclusive: 39.8 µM [fluorescent, side channel, partial curve]"
COc1cc(/C=C(\C#N)C(=O)c2ccc(O)c(O)c2)cc(I)c1O,–,"inconclusive: 56.2 µM [fluorescent, side channel, partial curve, poor fit]"
CN1CCN(c2cc(N3CCN(C(=O)c4ccco4)CC3)c3c4c(onc24)-c2ccccc2C3=O)CC1,–,"inconclusive: 35.5 µM [fluorescent, side channel, partial curve]"
CCOC(=O)c1[nH]c(C)c(C(=O)Nc2ccc(F)cc2)c1C,inactive: 0.434%,–
Cc1ccc(N2C3=C(C(=O)CC(C)(C)C3)C(c3cn(C)nc3C)C3=C2CC(C)(C)CC3=O)cc1,–,"inconclusive: 56.2 µM [fluorescent, partial curve, poor fit]"
Cc1c2cc(O)c(=O)cc-2oc2cc(O)c(O)cc12,–,"inconclusive: 2.82 µM [falling, full curve, poor fit]"
CCN(CC)c1ccc(/C=C(\C#N)C(=O)c2ccc(Br)cc2)cc1,–,"inconclusive: 56.2 µM [fluorescent, side channel, partial curve, poor fit]"
CCOc1cc(C=C2C(=O)c3ccccc3C2=O)ccc1OCC(=O)Nc1ccc(C)cc1,–,"inconclusive: 79.4 µM [fluorescent, side channel, partial curve, poor fit]"
CC1CCN(c2ccc3c(c2)S(=O)(=O)c2cccc(C(=O)NCc4cccc(F)c4)c2C3=O)CC1,–,"inconclusive: 56.2 µM [fluorescent, side channel, partial curve, poor fit]"
O=C(OCCN1C(=O)c2cccc3c(N4CCOCC4)ccc(c23)C1=O)c1ccccc1Cl,–,"inconclusive: 79.4 µM [fluorescent, side channel, partial curve, poor fit]"
